# The other results are listed elsewhere or left out. The full chains were built here from the parent and the listed change. Inactive controls read about 0.05.
# B1: TEV protease; numbered along this chain (parent)
# chain: MGESLFKGPRDYNPISSSICHLTNESDGHTTSLYGIGFGPFIITNKHLFRRNNGTLVVQSLHGVFKVKDTTTLQQHLVDGRDMIIIRMPKDFPPFPQKLKFREPQREERICLVTTNFQTKSMSSMVSDTSCTFPSGDGIFWKHWIQTKDGQCGSPLVSTRDGFIVGIHSASNFTNTNNYFTSVPKNFMELLTNQEAQQWVSGWRLNADSVLWGGHKVFMVKPEEPFQPVKEATQL
# Variants of: B1
# Assay: raw area under fraction-flipped curve 0-4 h after induction (AUC4h, not background-subtracted), DNA-recorder readout of cleavage of the substrate (dimensionless); higher = more cleavage of the substrate by the protease variant
# Details: temperature: 34 °C; time window: 0-4 h after rhamnose induction
# Procedure: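 In vivo DNA recorder in E. coli TOP10(DE3) ΔrhaA at 34 °C. Each TEVp single-site mutant (parent TEVp 0) is paired with a single-site variant of the 7-mer TEVs (canonical ENLYFQ|S). The substrate sits between flexible linkers in a Bxb1-sfGFP-TEVs-SsrA fusion, so cleavage stabilises Bxb1 and speeds flipping of a recombination array, read by NGS. The value is the raw area under the fraction-flipped curve over 0-4 h after rhamnose induction (AUC4h), with ≥20 reads per time point. It is not background-subtracted; inactive controls average about 0.047.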
# 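Note: Bxb1 expression induced with 0.2% (w/v) L-rhamnose at OD600 near 0.5, cultures sampled hourly, flipped fraction per protease–substrate barcode pair counted by paired-end Illumina sequencing.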
Variant,area with substrate ENAYFQS,area with substrate ENDYFQS,area with substrate ENEYFQS,area with substrate ENGYFQS,area with substrate ENHYFQS,area with substrate ENIYFQS,area with substrate ENMYFQS,area with substrate ENNYFQS,area with substrate ENPYFQS,area with substrate ENQYFQS,area with substrate ENRYFQS,area with substrate ENSYFQS,area with substrate ENVYFQS,area with substrate ENYYFQS,area with substrate ENCYFQS,area with substrate ENKYFQS,area with substrate ENWYFQS,area with substrate ENTYFQS,area with substrate ENFYFQS
MGESLFKGPRDYNPISSSICHLVNESDGHTTSLYGIGFGPFIITNKHLFRRNNGTLVVQSLHGVFKVKDTTTLQQHLVDGRDMIIIRMPKDFPPFPQKLKFREPQREERICLVTTNFQTKSMSSMVSDTSCTFPSGDGIFWKHWIQTKDGQCGSPLVSTRDGFIVGIHSASNFTNTNNYFTSVPKNFMELLTNQEAQQWVSGWRLNADSVLWGGHKVFMVKPEEPFQPVKEATQL [T23V],0.0625,0.0621,0.0617,0.0431,0.0607,0.103,0.083,0.0647,0.063,0.0643,0.0341,0.0704,0.0837,0.0626,,,,,
MGESLFKGPRDYNPISSSICHLTMESDGHTTSLYGIGFGPFIITNKHLFRRNNGTLVVQSLHGVFKVKDTTTLQQHLVDGRDMIIIRMPKDFPPFPQKLKFREPQREERICLVTTNFQTKSMSSMVSDTSCTFPSGDGIFWKHWIQTKDGQCGSPLVSTRDGFIVGIHSASNFTNTNNYFTSVPKNFMELLTNQEAQQWVSGWRLNADSVLWGGHKVFMVKPEEPFQPVKEATQL [N24M],0.0536,0.0704,0.0406,,,0.165,,0.0586,,0.0535,0.0606,0.0585,,,0.0657,0.0568,0.059,,
MGESLFKGPRDYNPISSSICHLTNDSDGHTTSLYGIGFGPFIITNKHLFRRNNGTLVVQSLHGVFKVKDTTTLQQHLVDGRDMIIIRMPKDFPPFPQKLKFREPQREERICLVTTNFQTKSMSSMVSDTSCTFPSGDGIFWKHWIQTKDGQCGSPLVSTRDGFIVGIHSASNFTNTNNYFTSVPKNFMELLTNQEAQQWVSGWRLNADSVLWGGHKVFMVKPEEPFQPVKEATQL [E25D],0.0586,,0.0686,0.0606,0.0601,0.107,0.0869,0.0741,0.0538,0.0579,0.0683,0.0859,0.0774,0.0491,0.0637,0.061,,0.0674,
MGESLFKGPRDYNPISSSICHLTNLSDGHTTSLYGIGFGPFIITNKHLFRRNNGTLVVQSLHGVFKVKDTTTLQQHLVDGRDMIIIRMPKDFPPFPQKLKFREPQREERICLVTTNFQTKSMSSMVSDTSCTFPSGDGIFWKHWIQTKDGQCGSPLVSTRDGFIVGIHSASNFTNTNNYFTSVPKNFMELLTNQEAQQWVSGWRLNADSVLWGGHKVFMVKPEEPFQPVKEATQL [E25L],0.0419,0.0596,0.0589,0.0517,,0.111,,0.0524,0.0566,0.0633,0.0636,0.0587,0.0784,0.033,0.0834,0.0539,,,0.0824
MGESLFKGPRDYNPISSSICHLTNVSDGHTTSLYGIGFGPFIITNKHLFRRNNGTLVVQSLHGVFKVKDTTTLQQHLVDGRDMIIIRMPKDFPPFPQKLKFREPQREERICLVTTNFQTKSMSSMVSDTSCTFPSGDGIFWKHWIQTKDGQCGSPLVSTRDGFIVGIHSASNFTNTNNYFTSVPKNFMELLTNQEAQQWVSGWRLNADSVLWGGHKVFMVKPEEPFQPVKEATQL [E25V],0.0692,0.056,0.0638,0.0599,0.0911,0.105,,0.0347,,0.0561,0.0678,0.0562,0.0694,0.0822,0.0683,0.064,,0.0601,0.0578
MGESLFKGPRDYNPISSSICHLTNEDDGHTTSLYGIGFGPFIITNKHLFRRNNGTLVVQSLHGVFKVKDTTTLQQHLVDGRDMIIIRMPKDFPPFPQKLKFREPQREERICLVTTNFQTKSMSSMVSDTSCTFPSGDGIFWKHWIQTKDGQCGSPLVSTRDGFIVGIHSASNFTNTNNYFTSVPKNFMELLTNQEAQQWVSGWRLNADSVLWGGHKVFMVKPEEPFQPVKEATQL [S26D],0.0623,0.0629,0.0669,,0.0631,,,0.0585,0.0682,0.0562,,0.0736,0.0661,,0.0598,0.0496,0.0828,0.068,0.0603
MGESLFKGPRDYNPISSSICHLTNESLGHTTSLYGIGFGPFIITNKHLFRRNNGTLVVQSLHGVFKVKDTTTLQQHLVDGRDMIIIRMPKDFPPFPQKLKFREPQREERICLVTTNFQTKSMSSMVSDTSCTFPSGDGIFWKHWIQTKDGQCGSPLVSTRDGFIVGIHSASNFTNTNNYFTSVPKNFMELLTNQEAQQWVSGWRLNADSVLWGGHKVFMVKPEEPFQPVKEATQL [D27L],0.0568,0.0624,0.0652,0.0639,0.0634,0.0943,0.0803,0.0492,0.0558,0.0567,0.0605,0.0568,0.0594,0.0538,0.0822,0.0662,0.0059,0.0823,0.0469
MGESLFKGPRDYNPISSSICHLTNESDFHTTSLYGIGFGPFIITNKHLFRRNNGTLVVQSLHGVFKVKDTTTLQQHLVDGRDMIIIRMPKDFPPFPQKLKFREPQREERICLVTTNFQTKSMSSMVSDTSCTFPSGDGIFWKHWIQTKDGQCGSPLVSTRDGFIVGIHSASNFTNTNNYFTSVPKNFMELLTNQEAQQWVSGWRLNADSVLWGGHKVFMVKPEEPFQPVKEATQL [G28F],0.0504,,0.05,0.0404,0.0722,0.149,,0.0553,0.0624,0.0653,0.0589,,0.0625,0.0635,0.0573,,0.0511,0.0561,0.0543
MGESLFKGPRDYNPISSSICHLTNESDGKTTSLYGIGFGPFIITNKHLFRRNNGTLVVQSLHGVFKVKDTTTLQQHLVDGRDMIIIRMPKDFPPFPQKLKFREPQREERICLVTTNFQTKSMSSMVSDTSCTFPSGDGIFWKHWIQTKDGQCGSPLVSTRDGFIVGIHSASNFTNTNNYFTSVPKNFMELLTNQEAQQWVSGWRLNADSVLWGGHKVFMVKPEEPFQPVKEATQL [H29K],0.0648,,0.071,0.0656,,,0.0645,,,0.0415,0.0641,,,,,,,,

# — the supplement of paper PMC12217912
